Measurements published in PubChem BioAssay AID2676 (National Center for Advancing Translational Sciences (NCATS), 2010).
Hit rate of the full screen: of about 370,000 compounds, about 1,100 (0.3%) were called active. Inconclusive results, whose numbers are uncertain, are shown with a selection of clear calls. Calls follow the shape of the dose curve; as a rule, active = well fitted activation curve with a large enough effect; inconclusive = small, poorly fitted or top-dose-only effect; inactive = flat fitted curve, though single readings scatter. Potencies beside an inconclusive call are fits to weak or partial responses and may not hold up.
Also: nearly all actives have a fitted effect of over 60% in size.
Potency is read from the fitted curve at half-maximal effect; tags tell the direction and shape of the fitted curve.

The molecules below were run against Relaxin receptor 1 (Homo sapiens) (UniProt Q9HBX9) (assay: qHTS Assay for Agonists of the Relaxin Receptor RXFP1). Settings: HEK293T-RXFP1 cAMP TR-FRET, 30 min; series mostly up to 57.5 µM.
Sequence of UniProt Q9HBX9 (Q9HBX9 whole entry, looked up): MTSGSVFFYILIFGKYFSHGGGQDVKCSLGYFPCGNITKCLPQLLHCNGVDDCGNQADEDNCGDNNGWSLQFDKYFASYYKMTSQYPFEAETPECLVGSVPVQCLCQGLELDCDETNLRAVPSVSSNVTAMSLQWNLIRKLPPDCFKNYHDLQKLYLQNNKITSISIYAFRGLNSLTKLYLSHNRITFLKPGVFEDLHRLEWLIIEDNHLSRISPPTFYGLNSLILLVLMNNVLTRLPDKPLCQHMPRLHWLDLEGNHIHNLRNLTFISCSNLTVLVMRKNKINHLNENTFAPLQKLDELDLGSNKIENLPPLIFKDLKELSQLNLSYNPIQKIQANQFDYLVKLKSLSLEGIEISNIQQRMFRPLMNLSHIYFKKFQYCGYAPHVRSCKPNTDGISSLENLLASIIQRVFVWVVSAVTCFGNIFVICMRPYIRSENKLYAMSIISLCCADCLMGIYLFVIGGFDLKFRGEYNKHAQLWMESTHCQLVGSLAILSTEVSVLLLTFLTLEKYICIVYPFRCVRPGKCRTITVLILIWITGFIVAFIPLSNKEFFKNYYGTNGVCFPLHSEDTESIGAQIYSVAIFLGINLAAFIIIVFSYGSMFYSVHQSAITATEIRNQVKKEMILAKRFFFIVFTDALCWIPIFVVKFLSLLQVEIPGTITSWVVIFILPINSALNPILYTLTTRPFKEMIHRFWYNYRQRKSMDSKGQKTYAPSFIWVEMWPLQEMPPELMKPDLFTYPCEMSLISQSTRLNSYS
In short: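 HEK293T cells stably expressing RXFP1 were pretreated with the PDE4 inhibitor Ro 20174, exposed to compounds for 30 min at 37C, lysed, and cAMP was read by TR-FRET. Data normalized to buffer (basal) and 29 nM porcine relaxin (100%).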
`O=C(NCc1nnc2c(C(F)(F)F)cc(Cl)cn12)c1ccc2c(c1)OCO2` was tested, and the Potency was inconclusive: 17.8 µM [activator, partial curve]. In the case of `CC1CCN(c2nc3c(S(=O)(=O)c4ccccc4)nnn3c3ccsc23)CC1`, the Potency was inconclusive: 39.8 µM [activator, single point]. With `Cc1c(Cl)cccc1NC(=O)CSc1ccc(-c2cccnc2)nn1` the Potency was inconclusive: 17.8 µM [activator, partial curve]. In the case of `CCN1C(=O)C2(C(C(=O)c3cc4ccccc4o3)=C(O)C(=O)N2CCCN2CCOCC2)c2ccccc21` (stereo not given), the Potency was active: 15.8 µM. In the case of `COc1ccccc1-c1nc(-c2ccc(Br)cc2)no1`, the Potency was inconclusive: 39.8 µM [activator, single point]. For `COc1ccccc1CCNC(=O)c1ccc2c(c1)c(C)c(C)n2C`, the Potency was “inactive”. In the case of `CC1CCCN(c2ccc3nncn3n2)C1` (stereo not given), the Potency was inconclusive: 28.2 µM [activator, partial curve]. For `COC(=O)c1cc(NC(=O)CCc2c(C)nc3c4c(C)cc(C)nc4nn3c2C)cc(C(=O)OC)c1`, the Potency was inconclusive: 10 µM [activator, partial curve]. `Cc1ccc(C(=O)C2=C(O)C(=O)N(Cc3cccnc3)C2c2ccc(Cl)cc2)o1` (stereo not given) was tested, and the Potency was inconclusive: 20 µM [activator, partial curve]. For `COc1cc(NC(=O)Cn2c(SCc3ccc(F)cc3)nc3cccnc32)cc(OC)c1`, the Potency was inconclusive: 35.5 µM [activator, single point]. `O=C(NCc1ccc(F)cc1)C1CCN(C(=O)c2ccc(-n3ccc4ccccc43)s2)CC1` was tested, and the Potency was inconclusive: 22.4 µM [activator, partial curve]. With `CCOC(=O)C1CCN(C(=O)Cn2nc(CC)n3cccc3c2=O)CC1` the Potency was inconclusive: 28.2 µM [activator, partial curve]. For `Cc1nc2sc(C)c(C)n2c(=O)c1S(=O)(=O)NCCc1ccc(Cl)cc1`, the Potency was inconclusive: 25.1 µM [activator, partial curve]. For `Cc1cccc(C(=O)Nc2nc3c(s2)CCCC3)c1`, the Potency was “inactive”. For `CCOCCc1nn2c(=O)cc(COC(=O)c3ccccc3NC(=O)c3cccs3)nc2s1`, the Potency was inconclusive: 39.8 µM [activator, single point]. In the case of `COc1ccc2c3n([n+]([O-])c2c1)CCN=C3c1cc(Cl)c(N)c(Cl)c1`, the Potency was “inactive”. With `CCc1ccc(S(=O)(=O)c2nnn3c2nc(N2CCN(CC)CC2)c2sccc23)cc1` the Potency was inconclusive: 25.1 µM [activator, partial curve]. In the case of `Cn1cc(Cl)c(-c2n[nH]c(=S)n2-c2ccccc2)n1`, the Potency was inconclusive: 15.8 µM [activator, partial curve]. In the case of `O=C(CSc1ccc(-c2ccco2)nn1)NCc1ccc2c(c1)OCO2`, the Potency was inconclusive: 17.8 µM [activator, partial curve]. For `Cc1cccc(/C=N/NC(=O)Cc2cccs2)c1`, the Potency was “inactive”. `Cc1cc(C)c2c(n1)nn1c(C)c(CCC(=O)Nc3ccc(C)c(Cl)c3)c(C)nc21` was tested, and the Potency was inconclusive: 28.2 µM [activator, partial curve]. For `C(#Cc1ccccc1)C[N+]1(CC#Cc2cccc3ccccc23)CCCC1`, the Potency was “inactive”. `COc1cccc(NC(=O)c2sc(-n3nc(C)c(Cc4ccccc4Cl)c3C)nc2C)c1` was tested, and the Potency was inconclusive: 28.2 µM [activator, single point]. For `Cc1cccc2c(N=NC(=O)c3ccc(NS(=O)(=O)c4cccs4)cc3)c(O)[nH]c12`, the Potency was “inactive”. With `CCN1CCN(Cc2c3ccccc3cc3ccccc23)CC1` the Potency was “inactive”. With `Cc1ccc(C)c(C(=O)OCC(=O)Nc2cccc(S(=O)(=O)N3CCCCC3)c2)c1` the Potency was “inactive”. In the case of `Cc1cc(NC(=O)c2ccccc2F)nc2c1c(=O)oc1ccccc12`, the Potency was inconclusive: 6.31 µM [activator, single point]. With `COc1ccc(OC)c(NC(=O)CCCOc2cc(=O)n(C)c3ccccc23)c1` the Potency was “inactive”. With `CC(C)OC(=O)C(C)Nc1n[nH]c(=S)[nH]c1=O` (stereo not given) the Potency was inconclusive: 14.1 µM [activator, partial curve]. For `Cc1ccc(OC(=O)c2ccc3nc(C)sc3c2)cc1`, the Potency was inconclusive: 28.2 µM [activator, single point]. `COc1ccc(C(=O)COC(=O)c2ccc(N(C)C)cc2)cc1` was tested, and the Potency was inconclusive: 39.8 µM [activator, single point]. For `Cc1ccc2c(=O)c(C(=O)c3cccc(Cl)c3)cn(CC(=O)NCc3ccccc3)c2n1`, the Potency was inconclusive: 35.5 µM [activator, single point]. `COc1cccc(OCCn2c(-c3ccc(Cl)cc3)nc3ccccc3c2=O)c1` was tested, and the Potency was inconclusive: 39.8 µM [activator, single point]. In the case of `CC1(C(=O)OCc2cc(=O)n3cc(Br)ccc3n2)CC1(Cl)Cl` (stereo not given), the Potency was inconclusive: 28.2 µM [activator, partial curve]. For `NS(=O)(=O)c1ccc(CNC(=O)c2cc(-c3cccnc3)nc3ccc(Br)cc23)cc1`, the Potency was inconclusive: 15.8 µM [activator, partial curve]. With `Cc1nnc(Nc2ccc(C(=O)N3CCOCC3)cc2)c2ccccc12` the Potency was inconclusive: 25.1 µM [activator, partial curve]. In the case of `COc1ccc(CC(=O)Nc2ccc(-c3noc(-c4cc(OC)c(OC)c(OC)c4)n3)cc2)cc1`, the Potency was inconclusive: 22.4 µM [activator, single point]. For `COc1cc2oc(=O)c3c(c2cc1OCC(=O)c1c(C)n(C)c2ccccc12)CCCC3`, the Potency was inconclusive: 31.6 µM [activator, partial curve]. With `CNc1oc(-c2ccc(OCc3ccccc3)cc2)nc1C#N` the Potency was “inactive”. For `CCn1c2ccccc2c2nc3cc(C(=O)O)ccc3nc21`, the Potency was inconclusive: 20 µM [activator, partial curve]. With `Cc1sc2ncnc(SCC(=O)NC(=O)c3cccn3C)c2c1C` the Potency was inconclusive: 28.2 µM [activator, single point]. For `Cc1nnc(SCC(=O)NCc2cccc(F)c2)c2nn(-c3ccccc3)c(C)c12`, the Potency was inconclusive: 20 µM [activator, single point]. With `O=c1[nH]c(SCc2nc3c(cnn3-c3ccccc3)c(=O)[nH]2)nc2ccccc12` the Potency was inconclusive: 39.8 µM [activator, single point]. With `NC(=O)C1CCN(C(=O)c2ccccc2NC(=O)c2nsc3ccccc23)CC1` the Potency was inconclusive: 22.4 µM [activator, partial curve]. `COc1ccc(NC(=O)CCCc2nnc3n(C)c(=O)c4sccc4n23)cc1` was tested, and the Potency was active: 15.8 µM. For `N#Cc1nc(/C=C/c2ccccc2)oc1NCCCN1CCOCC1`, the Potency was inconclusive: 14.1 µM [activator, partial curve]. For `Cn1nc(-c2ccc(OCC(=O)Nc3ccccc3)cc2)c2ccccc2c1=O`, the Potency was “inactive”. With `COc1ccc(CN2C(=O)c3cccnc3C2=O)cc1S(=O)(=O)N1CCCCC1C` (stereo not given) the Potency was active: 7.08 µM. `CCc1ccccc1NC(=O)CSc1ncc2c(n1)-c1ccccc1N(Cc1ccc(C)cc1)S2(=O)=O` was tested, and the Potency was inconclusive: 39.8 µM [activator, single point]. With `N#C/C(=C\c1c(N2CCC(C(N)=O)CC2)nc2ccccn2c1=O)C(=O)NC1CCCCC1` the Potency was inconclusive: 22.4 µM [activator, partial curve]. With `N#Cc1c(N)nc(SCC(=O)C23CC4CC(CC(C4)C2)C3)c(C#N)c1-c1ccc(Cl)cc1` the Potency was inconclusive: 11.2 µM [activator, partial curve]. For `COc1ccc(COC(=O)C2=C(C)NC(=O)NC2c2ccc(F)cc2)cc1` (stereo not given), the Potency was inconclusive: 39.8 µM [activator, single point]. For `CCCSCCCNC(=O)c1ccc(Cn2c(=O)c3cccn3c3cccnc32)cc1`, the Potency was inconclusive: 22.4 µM [activator, partial curve]. `Cc1cc(C)n2nc(C(=O)Nc3cccc(S(=O)(=O)N4CCOCC4)c3)nc2n1` was tested, and the Potency was inconclusive: 15.8 µM [activator, partial curve]. With `CN1CCN(c2nc3ccccn3c(=O)c2C=C(C#N)C#N)CC1` the Potency was inconclusive: 20 µM [activator, partial curve]. In the case of `Cc1nc2ccc(S(=O)(=O)N(C)CC(=O)Nc3ccc(Br)c(C)c3)cc2s1`, the Potency was “inactive”. For `CCN1C(=O)C(CC(=O)Nc2ccc(OC)cc2)N(CCCN2CCN(c3ccc(OC)cc3)CC2)C1=S` (stereo not given), the Potency was “inactive”. With `COc1cc2nc(SCc3cccc(Cl)c3)n3nc(CCn4nc(C)cc4C)nc3c2cc1OC` the Potency was inconclusive: 39.8 µM [activator, single point]. In the case of `Cc1ccc(S(=O)(=O)N2CCOCC2)cc1NC(=O)CSc1nc(N)cc(=O)[nH]1`, the Potency was inconclusive: 22.4 µM [activator, partial curve]. In the case of `COc1ccc(-c2cc(-c3ccc(OC)cc3)c(C#N)c(SC)n2)cc1`, the Potency was inconclusive: 35.5 µM [activator, single point]. `COc1cc(C)ccc1OCCSc1nc2ccc(NC(=O)c3ccc(F)cc3)cc2s1` was tested, and the Potency was inconclusive: 39.8 µM [activator, single point]. In the case of `CCCCOc1ccc(C(=O)Nc2ccc(-c3nc4ccccc4s3)cc2C)cc1`, the Potency was inconclusive: 6.31 µM [activator, single point]. With `O=C(COc1ccccc1F)Nc1ccc(-c2nc3ccccc3s2)cc1` the Potency was inconclusive: 39.8 µM [activator, single point]. For `CCN1CCN(c2c(S(=O)(=O)c3ccc(C)c(C)c3)cnc3cc(OC)c(OC)cc23)CC1`, the Potency was “inactive”. `COc1ccc2c(c1OC)c(=O)n1c3ccc(OC(C)C(=O)NCCN4CCOCC4)cc3c3ccnc2c31` (stereo not given) was tested, and the Potency was inconclusive: 20 µM [activator, partial curve].
